# Measurements: PubChem BioAssay (Tox21)
# Values joined by “and” are separate entries in the source; they are usually repeats but may differ in a detail not shown here. Identical values can stand only once. The shares of active, inactive and inconclusive entries below differ from those in the screen. For some assays here: Potencies beside an inconclusive call are fits to weak or partial responses and may not hold up. Active and inactive are the calls of the source. Unless noted, the call rests on the fitted dose curve; in most records, active means well fitted curve in the direction sought with a large enough effect in the repeat runs; inconclusive means weak or mixed curves; inactive means no such curve, though single readings can be large; an effect the other way counts as inactive or inconclusive.
# What was measured:
# [1] = qHTS assay to identify small molecule antagonists of the estrogen receptor alpha (ER-alpha) signaling pathway - cell viability counter screen (AID 743074; calls by dose curve;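 further: HEK293 cells carrying ER-alpha-UAS-bla reporter stimulated with 17beta-estradiol; on the % scale 0 is the no-effect control and ±100 the full control effect; nearly all actives have a fitted effect of over 45% in size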)
# [2] = biological target: Estrogen receptor (Homo sapiens) (UniProt P03372); assay: qHTS assay to identify small molecule agonists of the estrogen receptor alpha (ER-alpha) signaling pathway using the BG1 cell line (AID 743079); conditions: BG1Luc4E2 cells, ERE-luciferase agonist, 22 h; activation: at 70.3 µM (top of the series) unless noted; further: potency means the concentration at half of the fitted maximal effect; nearly all actives have a fitted effect of over 20% in size
# Sequence of UniProt P03372 (P03372 whole entry, looked up): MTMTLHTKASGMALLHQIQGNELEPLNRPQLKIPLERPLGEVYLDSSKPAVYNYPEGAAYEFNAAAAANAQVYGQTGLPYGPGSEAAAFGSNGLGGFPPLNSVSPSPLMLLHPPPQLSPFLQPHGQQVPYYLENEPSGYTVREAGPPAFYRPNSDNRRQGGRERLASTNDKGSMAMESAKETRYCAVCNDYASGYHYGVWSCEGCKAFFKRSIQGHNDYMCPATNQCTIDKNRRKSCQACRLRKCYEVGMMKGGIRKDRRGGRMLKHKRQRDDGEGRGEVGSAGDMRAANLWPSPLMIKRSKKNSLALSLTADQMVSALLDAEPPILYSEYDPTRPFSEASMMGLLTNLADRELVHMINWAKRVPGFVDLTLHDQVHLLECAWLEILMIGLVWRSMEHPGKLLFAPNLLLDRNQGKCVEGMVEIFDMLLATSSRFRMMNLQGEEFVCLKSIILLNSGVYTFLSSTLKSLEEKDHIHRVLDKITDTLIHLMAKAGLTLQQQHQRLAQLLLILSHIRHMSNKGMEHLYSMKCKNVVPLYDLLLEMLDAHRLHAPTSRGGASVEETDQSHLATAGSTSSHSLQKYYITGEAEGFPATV
# [3] = qHTS assay to identify small molecule antagonists of the vitamin D receptor (VDR) signaling pathway - cell viability counter screen (AID 743225); conditions: VDR-bla HEK293T viability, CellTiter-Glo luminescence, 16 h; viability change, negative = cytotoxic: at 61 µM (top of the series) unless noted; further: potency means the concentration at half of the fitted maximal effect; nearly all actives have a fitted effect of over 50% in size
# Outline: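 VDR-bla HEK 293T cells, 4 h pre-incubation at 37C, then compound plus 1-alpha,25-dihydroxyvitamin D3 (3 nM final) for 16 h. After the beta-lactamase FRET read, CellTiter-Glo was added to the same wells; luminescence after 30 min at room temperature.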
# [4] = qHTS assay to identify small molecule agonists of H2AX - cell viability counter screen (AID 1224847; calls by dose curve; further: potency means the concentration at half of the fitted maximal effect; nearly all actives have a fitted effect of over 30% in size)
# Outline: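 Wild-type CHO-K1 cells (10% FBS medium) were plated overnight at 37C, exposed to compounds at 15 concentrations for 3 hr at 37C (0.76% DMSO final), and viability was read as CellTiter-Glo luminescence after 30 min at room temperature.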
# [5] = biological target: Nuclear receptor subfamily 1 group I member 2 (Homo sapiens) (UniProt O75469); assay: Human pregnane X receptor (PXR) small molecule agonists, qHTS assay (AID 1346982); further: potency means the concentration at half of the fitted maximal effect; nearly all actives have a fitted effect of over 35% in size
# Sequence of UniProt O75469 (O75469 whole entry, looked up): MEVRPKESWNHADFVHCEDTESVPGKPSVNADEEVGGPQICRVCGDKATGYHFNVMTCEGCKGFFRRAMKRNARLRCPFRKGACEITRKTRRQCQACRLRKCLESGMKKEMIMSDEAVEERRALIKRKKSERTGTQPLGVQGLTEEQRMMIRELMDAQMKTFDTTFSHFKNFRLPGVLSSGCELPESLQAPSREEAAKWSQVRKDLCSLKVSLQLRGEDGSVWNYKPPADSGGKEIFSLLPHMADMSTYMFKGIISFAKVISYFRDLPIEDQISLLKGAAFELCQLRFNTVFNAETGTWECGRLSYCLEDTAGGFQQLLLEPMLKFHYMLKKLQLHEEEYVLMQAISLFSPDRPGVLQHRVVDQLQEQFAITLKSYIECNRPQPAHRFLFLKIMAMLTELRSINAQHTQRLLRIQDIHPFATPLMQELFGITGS
# Outline: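 Luciferase signal from ONE-Glo (30 min, room temperature) measured activation of hPXR-driven CYP3A4 reporter expression in PXR-Luc HepG2 cells treated with compounds for 24 hr at 37 C.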
# [6] = biological target: Cytochrome P450 2C19 (Homo sapiens) (UniProt P33261); assay: Cytochrome P450 Family 2 Subfamily C Member 19 (CYP2C19) small molecule antagonists: luciferase reporter qHTS assay (AID 1671197); further: nearly all actives have a fitted effect of over 65% in size; further: potency means the concentration at half of the fitted maximal effect
# Sequence of UniProt P33261 (P33261 whole entry, looked up): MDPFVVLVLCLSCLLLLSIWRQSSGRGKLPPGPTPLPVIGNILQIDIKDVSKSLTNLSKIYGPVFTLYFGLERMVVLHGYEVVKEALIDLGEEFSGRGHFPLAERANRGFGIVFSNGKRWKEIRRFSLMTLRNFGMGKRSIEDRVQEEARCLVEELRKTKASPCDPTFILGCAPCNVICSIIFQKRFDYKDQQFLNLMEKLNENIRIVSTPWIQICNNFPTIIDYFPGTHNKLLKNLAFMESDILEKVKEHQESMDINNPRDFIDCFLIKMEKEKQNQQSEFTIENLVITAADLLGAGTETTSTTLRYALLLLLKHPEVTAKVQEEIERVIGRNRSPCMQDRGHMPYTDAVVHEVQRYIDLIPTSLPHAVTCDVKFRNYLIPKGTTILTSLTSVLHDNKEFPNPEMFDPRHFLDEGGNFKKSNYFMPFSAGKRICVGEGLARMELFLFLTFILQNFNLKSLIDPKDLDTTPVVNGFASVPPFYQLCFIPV
# Outline: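 CYP2C19 P450-Glo, 1536-well qHTS. Cpd + enzyme/proluciferin substrate 10 min RT; + NADPH regen, 37C 1 h; stop with luciferin detection reagent, 20 min RT, luminescence (RLU). Pos ctrl ketoconazole.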
# [7] = qHTS assay to identify small molecule agonists of the retinoic acid receptor (RAR) signaling pathway (AID 1159553); conditions: C3RL4 RARE luciferase reporter, agonist, 6 h; activation: at 73.3 µM (top of the series) unless noted; further: potency means the concentration at half of the fitted maximal effect; on activation: on the % scale 0 is the no-effect control and ±100 the full control effect
# Outline: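 Luminescence from a RARE-driven luciferase reporter in C3RL4 cells served as the read-out, measured after 30 min with detection reagent at room temperature. Compounds in DMSO were applied for 6 hr at 37 C following overnight seeding.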
# [8] = Caspase-3/7 induction in CHO-K1 cells by small molecules, qHTS cell viability counter screen (AID 1346979); further: nearly all actives have a fitted effect of over 35% in size; further: potency means the concentration at half of the fitted maximal effect; on activity change, negative = cytotoxicity: on the % scale 0 is the no-effect control and ±100 the full control effect
# Outline: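 Wild-type CHO-K1 cells were seeded at 1,500 per well, rested 5hr at 37 C, then exposed to compounds in DMSO. After 16hr, CellTiter-Fluor reagent was added and fluorescence read 1hr later as the viability measure.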
# [9] = biological target: Peroxisome proliferator-activated receptor delta (Homo sapiens) (UniProt Q03181); assay: qHTS assay to identify small molecule antagonists of the peroxisome proliferator-activated receptor delta (PPARd) signaling pathway (AID 743215; active means well fitted inhibition curve with a large enough effect in the signal ratio in the repeat runs, not every such curve was filed as active; inconclusive means weak or mixed curves, or effect the other way; inactive means no such curve, though single readings can be large or run the other way; the % refers to the signal ratio;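 further: cells stimulated with agonist L165041 at 300 nM final during compound exposure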; further: potency means the concentration at half of the fitted maximal effect; on ratio activity, negative = inhibition: on the % scale 0 is the no-effect control and ±100 the full control effect); conditions: HEK293H PPARd-UAS-bla, beta-lactamase FRET ratio, antagonist, 17 h; ratio activity, negative = inhibition: at 62 µM (top of the series) unless noted
# Sequence of UniProt Q03181 (Q03181 whole entry, looked up): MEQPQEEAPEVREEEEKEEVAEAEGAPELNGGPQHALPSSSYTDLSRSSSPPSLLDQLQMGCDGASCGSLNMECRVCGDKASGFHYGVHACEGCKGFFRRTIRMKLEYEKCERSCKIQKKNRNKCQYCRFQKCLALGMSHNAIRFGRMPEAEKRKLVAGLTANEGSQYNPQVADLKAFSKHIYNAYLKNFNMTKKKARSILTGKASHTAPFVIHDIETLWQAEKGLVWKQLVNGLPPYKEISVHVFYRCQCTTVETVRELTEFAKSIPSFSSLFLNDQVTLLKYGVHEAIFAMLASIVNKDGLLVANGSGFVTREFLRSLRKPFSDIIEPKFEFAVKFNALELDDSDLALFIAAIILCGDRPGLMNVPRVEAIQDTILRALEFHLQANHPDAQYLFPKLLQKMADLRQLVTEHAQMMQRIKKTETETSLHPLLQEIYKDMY
# Outline: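 Read-out is beta-lactamase FRET fluorescence, measured 2 h after substrate addition at room temperature. Beforehand, UAS-bla HEK293H cells carrying the PPARd reporter were exposed to compounds with L165041 at 300 nM final for 17 h at 37 C.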
# [10] = biological target: Thyrotropin receptor (Homo sapiens) (UniProt P16473); assay: qHTS assay to identify small molecule agonists of the thyroid stimulating hormone receptor (TSHR) signaling pathway (AID 1224843; calls by dose curve; further: on the % scale 0 is the no-effect control and ±100 the full control effect; nearly all actives have a fitted effect of over 45% in size); conditions: TSHR-HEK293 cells, cAMP HTRF, agonist mode, 30 min; activation: at 92.4 µM (top of the series) unless noted
# Sequence of UniProt P16473 (P16473 whole entry, looked up): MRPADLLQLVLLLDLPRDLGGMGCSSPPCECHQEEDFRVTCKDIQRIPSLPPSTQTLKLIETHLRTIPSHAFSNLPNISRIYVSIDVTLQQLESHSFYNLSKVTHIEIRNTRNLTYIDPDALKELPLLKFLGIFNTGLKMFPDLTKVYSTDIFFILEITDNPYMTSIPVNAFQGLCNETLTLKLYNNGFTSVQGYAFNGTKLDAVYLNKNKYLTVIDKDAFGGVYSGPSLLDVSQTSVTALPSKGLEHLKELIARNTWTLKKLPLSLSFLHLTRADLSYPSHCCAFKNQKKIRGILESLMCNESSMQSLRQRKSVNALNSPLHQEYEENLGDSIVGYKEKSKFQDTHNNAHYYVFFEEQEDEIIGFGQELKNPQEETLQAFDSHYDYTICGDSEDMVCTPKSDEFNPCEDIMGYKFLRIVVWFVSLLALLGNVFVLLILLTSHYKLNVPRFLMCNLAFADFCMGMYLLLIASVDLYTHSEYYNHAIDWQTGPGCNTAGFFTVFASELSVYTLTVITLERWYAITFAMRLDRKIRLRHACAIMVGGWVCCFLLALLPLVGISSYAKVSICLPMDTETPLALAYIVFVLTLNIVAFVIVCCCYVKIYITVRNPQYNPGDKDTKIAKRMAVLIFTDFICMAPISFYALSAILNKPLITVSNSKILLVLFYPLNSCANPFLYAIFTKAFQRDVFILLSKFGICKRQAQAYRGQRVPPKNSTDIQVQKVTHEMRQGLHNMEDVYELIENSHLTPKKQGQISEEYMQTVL
# Outline: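 TSHR-expressing HEK293 cells (800 per well) were exposed to compounds for 30 min at room temperature. cAMP was then detected by HTRF competition with cAMP-d2 and anti-cAMP cryptate, read after 1 h at room temperature. Fifteen concentrations, triplicate.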
# [11] = qHTS assay for identifying genotoxic compounds that show differential cytotoxicity against isogenic chicken DT40 cell lines with known DNA damage response pathways - wild type cell line (AID 743012); conditions: DT40 wild type chicken cells viability, CellTiter-Glo, 40 h; activity change, negative = cytotoxicity: at 68.4 µM (top of the series) unless noted; further: potency means the concentration at half of the fitted maximal effect; nearly all actives have a fitted effect of over 60% in size
# Outline: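 Wild type DT40, 300 cells/well, ~0.5 h settle at 37 C/5% CO2; compounds in DMSO added by pintool; 40 h at 37 C/5% CO2; CellTiter-Glo, 30 min RT; luminescence.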
# [12] = qHTS assay to identify small molecule agonists of the vitamin D receptor (VDR) signaling pathway - cell viability counter screen (AID 743224); further: potency means the concentration at half of the fitted maximal effect; nearly all actives have a fitted effect of over 50% in size
# Outline: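 Luminescence from CellTiter-Glo, read after 30 min at room temperature, reports viability of VDR-bla cells treated with compounds for 16 h at 37C in the wells used for the beta-lactamase FRET read.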
# [13] = qHTS RealTime-Glo MT Cell Viability Assay in HEK293 cells - 32 hour (AID 1224868); further: potency means the concentration at half of the fitted maximal effect; nearly all actives have a fitted effect of over 50% in size
# Outline: (§1)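 Nonlytic real-time viability readout: viable cells convert prosubstrate to NanoLuc substrate, giving luminescence proportional to live cell number. HEK293, 600 cells/well, compound added after 5 h, continuous culture at 37 C.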
# [14] = qHTS RealTime-Glo MT Cell Viability Assay in HEK293 cells - 24 hour (AID 1224886); further: potency means the concentration at half of the fitted maximal effect; nearly all actives have a fitted effect of over 50% in size
# Outline: as §1
# [15] = qHTS assay to identify small molecule antagonists of the peroxisome proliferator-activated receptor delta (PPARd) signaling pathway - cell viability counter screen (AID 743213); conditions: PPARd-bla HEK293H viability, CellTiter-Glo luminescence, 17 h; viability change, negative = cytotoxic: at 62 µM (top of the series) unless noted
# Outline: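 HEK293H PPARd UAS-bla cells, 5 h pre-incubation, compound + L165041 300 nM final, 17 h 37 C; B/G FRET substrate 2 h RT; then CellTiter-Glo 30 min RT, luminescence.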
# [16] = qHTS assay to identify small molecule antagonists of the estrogen related receptor (ERR) signaling pathway from Tox21 library - cell viability counter screen (AID 1224834); further: on the % scale 0 is the no-effect control and ±100 the full control effect; nearly all actives have a fitted effect of over 30% in size
# Outline: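 Fluorescence from CellTiter-Fluor gives the viability read-out, taken 30 min after reagent addition. Before that, ERR cells seeded 6 h earlier were incubated with compounds for 17.5 h at 37 C.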
# [17] = biological target: Estrogen receptor beta (Homo sapiens) (UniProt Q92731); assay: qHTS assay to identify small molecule agonists of the estrogen receptor beta (ER-beta) signaling pathway (AID 1259377; active means well fitted activation curve with a large enough effect in the signal ratio in the repeat runs, not every such curve was filed as active; inconclusive means weak or mixed curves, or effect the other way; the % refers to the signal ratio; further: on the % scale 0 is the no-effect control and ±100 the full control effect); conditions: ER-beta-UAS-bla HEK293T, beta-lactamase FRET ratio, 16 h; activation: at 92.4 µM (top of the series) unless noted
# Sequence of UniProt Q92731 (Q92731 whole entry, looked up): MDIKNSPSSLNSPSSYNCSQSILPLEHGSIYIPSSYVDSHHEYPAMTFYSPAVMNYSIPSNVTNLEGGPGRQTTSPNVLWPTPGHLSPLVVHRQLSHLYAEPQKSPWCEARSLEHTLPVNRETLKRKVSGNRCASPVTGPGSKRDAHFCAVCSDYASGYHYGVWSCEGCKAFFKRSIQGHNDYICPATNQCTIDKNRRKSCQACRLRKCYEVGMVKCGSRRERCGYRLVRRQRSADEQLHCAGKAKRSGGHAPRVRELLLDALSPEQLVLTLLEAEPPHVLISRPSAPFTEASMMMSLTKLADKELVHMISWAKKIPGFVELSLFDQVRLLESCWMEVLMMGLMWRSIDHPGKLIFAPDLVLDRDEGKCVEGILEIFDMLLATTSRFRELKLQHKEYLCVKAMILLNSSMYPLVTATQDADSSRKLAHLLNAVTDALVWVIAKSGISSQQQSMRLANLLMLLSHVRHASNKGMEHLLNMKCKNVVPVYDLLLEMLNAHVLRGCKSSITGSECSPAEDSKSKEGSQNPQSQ
# Outline: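 ER-beta-UAS-bla HEK293T (GripTite) cells carrying a UAS-driven beta-lactamase reporter, in medium with 2% charcoal-stripped FBS, were exposed to compounds for 16 hr at 37C; LiveBLAzer B/G FRET substrate was then added and fluorescence read after 2 hours at room temperature.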
# [18] = qHTS assay for small molecule agonists of the p53 signaling pathway (AID 651631; calls by dose curve; further: on the % scale 0 is the no-effect control and ±100 the full control effect; nearly all actives have a fitted effect of over 15% in size); conditions: HCT-116 p53RE-bla reporter, beta-lactamase FRET ratio, 16 h; activation: at 73.3 µM (top of the series) unless noted
# Outline: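 HCT-116 cells carrying a stable p53 response element–beta-lactamase reporter were plated, rested 5 h at 37 °C, then exposed to compound in DMSO for 16 h at 37 °C; reporter activity was read as FRET substrate fluorescence after 2 h at room temperature.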
# [19] = qHTS RealTime-Glo MT Cell Viability Assay in HEK293 cells - 16 hour (AID 1224872)
# Outline: as §1
# Tags describe the fitted curve by direction and shape or compound fluorescence and quenching.
structure (smiles),measurement,setting,value
CC(Cc1ccccc1)NCc1ccccc1Cl (configuration not stated),Potency,[1],inactive
same,Potency,[2],active: 26.6 µM
same,Potency,[3],"inconclusive: 0.0151 µM [rising, full curve, poor fit]"
same,Potency,[4],"inconclusive: 43.8 µM [cytotoxic, partial curve]"
same,Potency,[5],"inconclusive: 13.3 µM [activator, single point]"
same,Potency,[6],active: 1.38 µM
O=C1OC(CCN2CCCCC2)OC1(c1ccccc1)c1ccccc1 (configuration not stated),activation,[7],inconclusive: 5.51% [phenotype inactive]
same,Potency,[8],"inconclusive: 33.5 µM [cytotoxic, single point]"
BrCCCCCCBr,"ratio activity, negative = inhibition",[9],inconclusive: 2.92%
same,Potency,[10],inactive
CCC/C(=N\OCC)C1=C(O)CC(CC(C)SCC)CC1=O (configuration not stated),Potency,[11],"inconclusive: 69 µM [cytotoxic, single point]"
same,"ratio activity, negative = inhibition",[9],inconclusive: -49.4% [at 80.4 µM]
same,Potency,[12],"inconclusive: 62 µM [cytotoxic, single point]"
same,Potency,[7],"inconclusive: 69 µM [activator, single point]"
same,activation,[10],inconclusive: -37.1%
same,Potency,[4],"inconclusive: 50.8 µM [rising, single point]"
same,Potency,[13],"inconclusive: 34.9 µM [cytotoxic, partial curve, poor fit]"
same,Potency,[14],"inconclusive: 34.9 µM [cytotoxic, partial curve, poor fit]"
same,Potency,[5],active: 48.9 µM
CNNC,Potency,[1],inactive
same,Potency,[15],inactive
same,Potency,[16],inactive
same,activation,[17],inconclusive: 8.96%
same,Potency,[6],inactive
CCCCOCCOC(C)=O,Potency,[15],inactive
same,Potency,[9],"inconclusive: 21.3 µM [activator, single point] and inconclusive: 6.9 nM [fluorescent, full curve, poor fit]"
same,Potency,[12],"inconclusive: 6.92 µM [cytotoxic, partial curve, poor fit]"
same,Potency,[3],"inconclusive: 0.006 µM [cytotoxic, full curve, poor fit]"
same,Potency,[8],inactive
CC(C)Br,Potency,[18],inactive
same,Potency,[16],inactive
same,Potency,[19],"inconclusive: 61.8 µM [cytotoxic, partial curve, poor fit]"
